# Experimental data published in the supplement of paper PMC8728848.
# Some of the results follow.
# Tests used:
# Assay in all cases: glycan array binding signal (z-score within array); higher = stronger binding
# Conditions in all cases: glycan notation: IUPAC condensed, linker removed
# [1] = molecular target: Gal(a1-3)Gal(b1-4)GlcNAc(b1-2)Man
# How it was run: (§1)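 The Consortium for Functional Glycomics database supplied 3228 glycan arrays, of which those lacking an available protein sequence were dropped. The binding signal, a within-array Z-score, was averaged across arrays of the same protein sequence and across linkers. Negative scores can be read as non-binding.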
# [2] = molecular target: Gal(a1-3)Gal(b1-4)GlcNAc(b1-2)Man(a1-3)[Gal(a1-3)Gal(b1-4)GlcNAc(b1-2)Man(a1-6)]Man(b1-4)GlcNAc(b1-4)GlcNAc
# How it was run: as §1
# [3] = molecular target: Gal(a1-3)Gal(b1-4)GlcNAc(b1-3)GalNAc
# How it was run: as §1
# [4] = molecular target: Gal(a1-3)Gal(b1-4)GlcNAc(b1-6)GalNAc
# How it was run: as §1
# [5] = molecular target: Gal(a1-3)Gal(b1-4)[Fuc(a1-3)]GlcNAc
# How it was run: as §1
# [6] = molecular target: Gal(a1-3)Gal(b1-4)[Fuc(a1-3)]GlcNAc(b1-2)Man(a1-3)[Gal(a1-3)Gal(b1-4)[Fuc(a1-3)]GlcNAc(b1-2)Man(a1-6)]Man(b1-4)GlcNAc(b1-4)GlcNAc
# How it was run: as §1
# [7] = molecular target: Gal(a1-3)GalNAc
# How it was run: as §1
# [8] = molecular target: Gal(a1-3)[Gal(a1-4)]Gal(b1-4)GlcNAc
# How it was run: as §1
# [9] = molecular target: Gal(a1-4)Gal(b1-3)GlcNAc(b1-2)Man(a1-3)[Gal(a1-4)Gal(b1-3)GlcNAc(b1-2)Man(a1-6)]Man(b1-4)GlcNAc(b1-4)GlcNAc
# How it was run: as §1
# [10] = molecular target: Gal(a1-4)Gal(b1-4)Glc
# How it was run: as §1
# [11] = molecular target: Gal(a1-4)Gal(b1-4)GlcNAc
# How it was run: as §1
# [12] = molecular target: Gal(a1-4)Gal(b1-4)GlcNAc(b1-2)Man(a1-3)[Gal(a1-4)Gal(b1-4)GlcNAc(b1-2)Man(a1-6)]Man(b1-4)GlcNAc(b1-4)GlcNAc
# How it was run: as §1
# [13] = molecular target: Gal(a1-4)Gal(b1-4)GlcNAc(b1-3)Gal(b1-4)Glc
# How it was run: as §1
# [14] = molecular target: Gal(a1-4)GlcNAc
# How it was run: as §1
# [15] = molecular target: Gal(a1-6)Glc
# How it was run: as §1
# [16] = molecular target: Gal(b1-2)Gal
# How it was run: as §1
# [17] = molecular target: Gal(b1-3)Gal
# How it was run: as §1
# [18] = molecular target: Gal(b1-3)Gal(b1-4)GlcNAc
# How it was run: as §1
# [19] = molecular target: Gal(b1-3)GalNAc
# How it was run: as §1
# [20] = molecular target: Gal(b1-3)GalNAc(a1-3)[Fuc(a1-2)]Gal(b1-4)Glc
# How it was run: as §1
# [21] = molecular target: Gal(b1-3)GalNAc(a1-3)[Fuc(a1-2)]Gal(b1-4)GlcNAc
# How it was run: as §1
# [22] = molecular target: Gal(b1-3)GalNAc(b1-3)Gal
# How it was run: as §1
# [23] = molecular target: Gal(b1-3)GalNAc(b1-3)Gal(a1-4)Gal(b1-4)Glc
# How it was run: as §1
# [24] = molecular target: Gal(b1-3)GalNAc(b1-4)Gal(b1-4)Glc
# How it was run: as §1
# [25] = molecular target: Gal(b1-3)GalNAc(b1-4)[Neu5Ac(a2-3)]Gal(b1-4)Glc
# How it was run: as §1
# [26] = molecular target: Gal(b1-3)GlcNAc
# How it was run: as §1
# [27] = molecular target: Gal(b1-3)GlcNAc(a1-3)Gal(b1-4)GlcNAc
# How it was run: as §1
# [28] = molecular target: Gal(b1-3)GlcNAc(a1-6)Gal(b1-4)GlcNAc
# How it was run: as §1
# [29] = molecular target: Gal(b1-3)GlcNAc(b1-2)Man
# How it was run: as §1
# [30] = molecular target: Gal(b1-3)GlcNAc(b1-2)Man(a1-3)[Gal(b1-3)GlcNAc(b1-2)Man(a1-6)]Man(b1-4)GlcNAc(b1-4)GlcNAc
# How it was run: as §1
# [31] = molecular target: Gal(b1-3)GlcNAc(b1-2)Man(a1-3)[Gal(b1-3)GlcNAc(b1-2)Man(a1-6)]Man(b1-4)GlcNAc(b1-4)[Fuc(a1-6)]GlcNAc
# How it was run: as §1
# [32] = molecular target: Gal(b1-3)GlcNAc(b1-2)Man(a1-3)[GlcNAc(b1-4)][Gal(b1-3)GlcNAc(b1-2)Man(a1-6)]Man(b1-4)GlcNAc(b1-4)GlcNAc
# How it was run: as §1
# [33] = molecular target: Gal(b1-3)GlcNAc(b1-2)[Gal(b1-3)GlcNAc(b1-6)]Man(a1-6)[Gal(b1-3)GlcNAc(b1-2)Man(a1-3)]Man(b1-4)GlcNAc(b1-4)GlcNAc
# How it was run: as §1
# [34] = molecular target: Gal(b1-3)GlcNAc(b1-3)Gal(b1-3)GlcNAc
# How it was run: as §1
# [35] = molecular target: Gal(b1-3)GlcNAc(b1-3)Gal(b1-4)Glc
# How it was run: as §1
# [36] = molecular target: Gal(b1-3)GlcNAc(b1-3)Gal(b1-4)GlcNAc
# How it was run: as §1
# [37] = molecular target: Gal(b1-3)GlcNAc(b1-3)Gal(b1-4)GlcNAc(b1-2)Man(a1-3)[Gal(b1-3)GlcNAc(b1-3)Gal(b1-4)GlcNAc(b1-2)Man(a1-6)]Man(b1-4)GlcNAc(b1-4)GlcNAc
# How it was run: as §1
# [38] = molecular target: Gal(b1-3)GlcNAc(b1-3)Gal(b1-4)GlcNAc(b1-2)[Gal(b1-3)GlcNAc(b1-3)Gal(b1-4)GlcNAc(b1-6)]Man(a1-6)[Gal(b1-3)GlcNAc(b1-3)Gal(b1-4)GlcNAc(b1-2)Man(a1-3)]Man(b1-4)GlcNAc(b1-4)[Fuc(a1-6)]GlcNAc
# How it was run: as §1
# [39] = molecular target: Gal(b1-3)GlcNAc(b1-3)Gal(b1-4)GlcNAc(b1-3)Gal(b1-4)GlcNAc(b1-2)[Gal(b1-3)GlcNAc(b1-3)Gal(b1-4)GlcNAc(b1-3)Gal(b1-4)GlcNAc(b1-6)]Man(a1-6)[Gal(b1-3)GlcNAc(b1-3)Gal(b1-4)GlcNAc(b1-3)Gal(b1-4)GlcNAc(b1-2)Man(a1-3)]Man(b1-4)GlcNAc(b1-4)[Fuc(a1-6)]GlcNAc
# How it was run: as §1
# [40] = molecular target: Gal(b1-3)GlcNAc(b1-3)Gal(b1-4)GlcNAc(b1-6)[Gal(b1-3)GlcNAc(b1-3)]Gal(b1-4)Glc
# How it was run: as §1
# [41] = molecular target: Gal(b1-3)GlcNAc(b1-3)Gal(b1-4)[Fuc(a1-3)]GlcNAc(b1-6)[Gal(b1-3)GlcNAc(b1-3)]Gal(b1-4)Glc
# How it was run: as §1
# [42] = molecular target: Gal(b1-3)GlcNAc(b1-3)GalNAc
# How it was run: as §1
# [43] = molecular target: Gal(b1-3)GlcNAc(b1-6)Gal(b1-4)GlcNAc
# How it was run: as §1
# [44] = molecular target: Gal(b1-3)GlcNAc(b1-6)GalNAc
# How it was run: as §1
# [45] = molecular target: Gal(b1-3)GlcNAc(b1-6)[Gal(b1-3)]GalNAc
# How it was run: as §1
binder,measurement,setting,value
"CBM13 2a (Mycobacterium tuberculosum), P64849 (protein) DGPVQLKSRLGDVCLDAPSGSWFSPLVINPCNGTDFQRWNLTDDRQVESVAFPGECVNIGNALWARLQPCVNWISQHWTVQPDGLVKSDLDACLTVLGGPDPGTWVSTRWCDPNAPDQQWDSVPLEHHHHHH",glycan array binding signal (z-score),[1],-0.299
same,glycan array binding signal (z-score),[2],-0.178
same,glycan array binding signal (z-score),[3],-0.373
same,glycan array binding signal (z-score),[4],-0.186
same,glycan array binding signal (z-score),[5],-0.264
same,glycan array binding signal (z-score),[6],-0.199
same,glycan array binding signal (z-score),[7],0.087
same,glycan array binding signal (z-score),[8],-0.207
same,glycan array binding signal (z-score),[9],-0.14
same,glycan array binding signal (z-score),[10],-0.146
same,glycan array binding signal (z-score),[11],-0.323
same,glycan array binding signal (z-score),[12],-0.29
same,glycan array binding signal (z-score),[13],-0.267
same,glycan array binding signal (z-score),[14],-0.266
same,glycan array binding signal (z-score),[15],-0.063
same,glycan array binding signal (z-score),[16],-0.217
same,glycan array binding signal (z-score),[17],-0.285
same,glycan array binding signal (z-score),[18],-0.121
same,glycan array binding signal (z-score),[19],-0.17
same,glycan array binding signal (z-score),[20],-0.4
same,glycan array binding signal (z-score),[21],-0.225
same,glycan array binding signal (z-score),[22],-0.341
same,glycan array binding signal (z-score),[23],-0.225
same,glycan array binding signal (z-score),[24],-0.32
same,glycan array binding signal (z-score),[25],-0.205
same,glycan array binding signal (z-score),[26],-0.26
same,glycan array binding signal (z-score),[27],-0.084
same,glycan array binding signal (z-score),[28],-0.362
same,glycan array binding signal (z-score),[29],-0.214
same,glycan array binding signal (z-score),[30],-0.2
same,glycan array binding signal (z-score),[31],-0.131
same,glycan array binding signal (z-score),[32],-0.203
same,glycan array binding signal (z-score),[33],-0.242
same,glycan array binding signal (z-score),[34],-0.241
same,glycan array binding signal (z-score),[35],-0.321
same,glycan array binding signal (z-score),[36],-0.288
same,glycan array binding signal (z-score),[37],-0.195
same,glycan array binding signal (z-score),[38],-0.012
same,glycan array binding signal (z-score),[39],-0.046
same,glycan array binding signal (z-score),[40],-0.263
same,glycan array binding signal (z-score),[41],-0.165
same,glycan array binding signal (z-score),[42],-0.15
same,glycan array binding signal (z-score),[43],-0.345
same,glycan array binding signal (z-score),[44],-0.098
same,glycan array binding signal (z-score),[45],-0.021
